Laboratory results: the BET-seq Pho4 binding data (Le et al. 2018)
The list shows a part of the results. Values were computed here from the reads of four pooled replicates and scatter widely.

molecular target: T1, Pho4 (S. cerevisiae) (UniProt P07270); assay: relative binding free energy (BET-seq); higher = weaker binding; settings: reference: library average
T1 sequence: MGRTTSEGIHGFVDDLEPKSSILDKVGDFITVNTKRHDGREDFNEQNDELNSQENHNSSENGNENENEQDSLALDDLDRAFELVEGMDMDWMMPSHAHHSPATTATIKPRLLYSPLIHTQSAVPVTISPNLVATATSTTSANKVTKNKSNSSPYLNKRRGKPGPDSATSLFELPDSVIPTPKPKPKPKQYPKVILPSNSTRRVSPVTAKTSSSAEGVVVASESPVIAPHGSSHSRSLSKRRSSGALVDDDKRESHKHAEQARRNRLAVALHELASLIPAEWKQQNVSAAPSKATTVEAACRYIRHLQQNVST

Row | Sequence | relative binding free energy [kcal/mol]
1 | GCTGTCACGTGTACGG | 0.16
2 | GTTAGCACGTGTTTTA | 0.02
3 | CTATGCACGTGTAGGT | -0.08
4 | TAAAACACGTGGAGGG | 0.04
5 | GTTGACACGTGGCGGA | 0.13
6 | TATGACACGTGCTTGT | -0.14
7 | TTACTCACGTGGTTGT | 0.13
8 | AATGTCACGTGTCATA | 0.14
9 | TTCGGCACGTGATGTT | 0
10 | AGGTACACGTGGGAGT | 0
11 | GTCTACACGTGGGTTT | 0
12 | TCGGACACGTGTAGTG | 0.04
13 | TGTTGCACGTGGGATA | -0.05
14 | TGAGGCACGTGGCGTT | -0.15
15 | GTGAGCACGTGGGCGA | -0.22
16 | TTAGTCACGTGGAAGT | 0.15
17 | TGGGGCACGTGCGAAG | -0.19
18 | AGTGTCACGTGATGTA | 0.11
19 | TTTGACACGTGATTTA | 0.05
20 | AGTGTCACGTGGGCTA | -0.11
21 | TGGAGCACGTGTTAGT | 0.03
22 | TGAGGCACGTGTGAAG | -0.07
23 | AGAGACACGTGGAGAG | 0.09

Row | Sequence | relative binding free energy [kcal/mol]
24 | CTTGTCACGTGAGAGG | 0.24
25 | ATGTCCACGTGTAAGG | 0.21
26 | GGGCTCACGTGTGAGG | 0.28
27 | ATTTACACGTGGGCTT | 0.03
28 | CGGTACACGTGGAATT | 0.29
29 | AAAGACACGTGGGTGG | -0.21
30 | TTTTCCACGTGGGCAT | 0.01
31 | TAGGGCACGTGTTCTG | -0.16
32 | TAAGACACGTGTGTGG | -0.01
33 | GTGTTCACGTGAATGC | 0.57
34 | GTTTTCACGTGATGTG | 0.41
35 | TCTGGCACGTGGCAGG | -0.13
36 | ACGTACACGTGGGGCG | -0.08
37 | CGTACCACGTGGGTTT | -0.09
38 | AAATTCACGTGTGTGA | 0.22
39 | GGTTGCACGTGTAGCC | 0.07
40 | TAGGTCACGTGTGGAC | 0.11
41 | AGCGGCACGTGAAGGT | 0.2
42 | GACGGCACGTGGGTGA | -0.12
43 | TGGTTCACGTGCAAGT | 0.23
44 | TTTCTCACGTGCGTTG | 0.07
45 | GGACACACGTGAGGTT | 0.24
46 | TTGTTCACGTGTAGCG | 0.25

Row | Sequence | relative binding free energy [kcal/mol]
47 | ACATTCACGTGGTTGT | 0.21
48 | ATATGCACGTGGAGTT | -0.05
49 | CAGGGCACGTGATTTG | -0.16
50 | AGGTGCACGTGCACGG | -0.08
51 | TTGACCACGTGTGGGT | -0.14
52 | TCGATCACGTGGATGT | 0.22
53 | GGACACACGTGTATGT | 0.02
54 | GGTATCACGTGAGGTA | 0.33
55 | GATTTCACGTGTTGCG | 0.39
56 | TGAAGCACGTGTGTGC | -0.15
57 | GGAGGCACGTGTGAAC | 0.07
58 | TTGAACACGTGGTTAA | 0.01
59 | TGGGTCACGTGAGTAG | 0.35
60 | ACAAGCACGTGTTATG | 0.07
61 | AGTTTCACGTGTACTT | 0.23
62 | ATAAACACGTGAGTAT | 0.16
63 | TGTGTCACGTGCGTGT | 0
64 | CGTGGCACGTGATATG | 0
65 | TTTGACACGTGGTCAA | -0.13
66 | AGTTTCACGTGGGGTT | 0.14
67 | CATTTCACGTGGAATT | 0.37
68 | GACTACACGTGGGGTG | -0.08
69 | GGAATCACGTGAGATG | 0.34

Row | Sequence | relative binding free energy [kcal/mol]
70 | TTGGGCACGTGCGTCT | -0.1
71 | TTGGCCACGTGATTTA | 0
72 | GAAGGCACGTGTCTTG | -0.02
73 | TTTGGCACGTGCGTCT | -0.28
74 | ATACACACGTGTTGTG | -0.06
75 | GCGGGCACGTGCATGG | -0.11
76 | TTTACCACGTGTGGGT | 0.07
77 | ATATTCACGTGTCGAT | 0.18
78 | TTTCACACGTGAAGGG | 0.38
79 | ATTCTCACGTGGGCTG | 0.07
80 | GTAGGCACGTGAGTAG | 0.02
81 | TTGTCCACGTGATAGG | 0.19
82 | CGTTTCACGTGCATGG | 0.18
83 | AGTGTCACGTGTACTG | -0.17
84 | CCTTGCACGTGTGGTA | -0.04
85 | TTTCGCACGTGGTTTG | -0.24
86 | GTGCTCACGTGGGCTT | 0
87 | ATTGGCACGTGTAATT | 0.04
88 | TGTTTCACGTGTGGGG | 0.31
89 | ATGGGCACGTGGGCTG | -0.33
90 | TGCGACACGTGGGCTG | -0.22
91 | CTGTGCACGTGATGAT | 0.16
92 | TGATGCACGTGGGTAA | -0.14

Row | Sequence | relative binding free energy [kcal/mol]
93 | ACTGGCACGTGTCGTG | -0.11
94 | GGCTGCACGTGAGAGT | 0.14
95 | TTCTTCACGTGAGTGC | 0.44
96 | GAGGGCACGTGTCGTT | 0.06
97 | GGCGGCACGTGCCGGG | -0.24
98 | CGGCACACGTGAGGGG | 0.08
99 | TGTTTCACGTGATTTT | 0.35
100 | TTATACACGTGAATAG | 0.28
101 | TGGTTCACGTGGAGTA | 0.2
102 | TGAGTCACGTGAAAGG | 0.29
103 | GTTAGCACGTGAGTAT | 0.21
104 | CAATACACGTGGGGGA | -0.03
105 | GGTGTCACGTGATTGT | 0.27
106 | AGTGGCACGTGCTGGG | -0.18
107 | AGCAGCACGTGGTGGG | -0.2
108 | GTGTTCACGTGGGAGC | 0.21
109 | TGTTCCACGTGGTGAG | 0.09
110 | TTGGTCACGTGGCAAA | 0.21
111 | TCCTTCACGTGTGTGG | 0.18
112 | GCTGTCACGTGTCGTG | 0.11
113 | TAGAGCACGTGTGGTT | 0.04
114 | CTGAGCACGTGATGTT | 0.04
115 | TGATGCACGTGTAGGC | 0.02
